These are yes or no findings as the source states them, for the method shown. Some entries that bind do so weakly or less than the wild type. One block for each binder: values may come before it.
What was measured:
[1] = target: human CDC42 (aa 1-178), wild type (human) (UniProt P60953); test: fluorescence polarisation; 1 µM mant-GDP-bound CDC42 in the cuvette, IQGAP protein titrated; quadratic ligand binding equation; both purified
[2] = target: human CDC42 (aa 1-178), wild type (human) (UniProt P60953); test: fluorescence polarisation; 1 µM mant-GppNHp-bound CDC42 in the cuvette, IQGAP protein titrated; quadratic ligand binding equation; both purified
[3] = target: human CDC42 (aa 1-178) Q61L (human) (UniProt P60953); test: fluorescence polarisation; 1 µM mant-GDP-bound CDC42 in the cuvette, IQGAP protein titrated; quadratic ligand binding equation; both purified

Protein sequences, listed by entry. Tags and fused reporters are not part of them. Lines headed by an entry give the natural chain unless they say otherwise; changes in a name come on top. Chains listed by the source or under a name are the forms on record and can include a tag or linker. Residues count along the entry.
human CDC42 (aa 1-178), wild type (P60953, residues 1-178): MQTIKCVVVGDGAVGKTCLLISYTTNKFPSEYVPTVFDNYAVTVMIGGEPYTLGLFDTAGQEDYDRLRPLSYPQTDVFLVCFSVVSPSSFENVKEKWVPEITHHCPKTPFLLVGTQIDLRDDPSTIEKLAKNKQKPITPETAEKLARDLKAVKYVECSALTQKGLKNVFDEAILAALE
human CDC42 (aa 1-178) Q61L (P60953, form named): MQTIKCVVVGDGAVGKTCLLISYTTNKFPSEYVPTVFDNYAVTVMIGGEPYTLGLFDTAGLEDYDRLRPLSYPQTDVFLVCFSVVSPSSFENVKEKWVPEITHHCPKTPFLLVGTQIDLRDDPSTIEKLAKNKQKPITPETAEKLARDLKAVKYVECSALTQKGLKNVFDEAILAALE

binding [1]: binds weakly | binding [2]: binds weakly
B1: human IQGAP3 GRD3 (aa 942-1330) (domain or fragment, UniProt Q86VI3 942-1330)
chain: LKSLSKEKRQKLEAYQHLFYLLQTQPIYLAKLIFQMPQNKTTKFMEAVIFSLYNYASSRREAYLLLQLFKTALQEEIKSKVEQPQDVVTGNPTVVRLVVRFYRNGRGQSALQEILGKVIQDVLEDKVLSVHTDPVHLYKNWINQTEAQTGQRSHLPYDVTPEQALSHPEVQRRLDIALRNLLAMTDKFLLAITSSVDQIPYGMRYVAKVLKATLAEKFPDATDSEVYKVVGNLLYYRFLNPAVVAPDAFDIVAMAAGGALAAPQRHALGAVAQLLQHAAAGKAFSGQSQHLRVLNDYLEETHLKFRKFIHRACQVPEPEERFAVDEYSDMVAVAKPMVYITVGELVNTHRLLLEHQDCIAPDHQDPLHELLEDLGELPTIPDLIGESIA

binding [1]: binds weakly | binding [3]: binds weakly
B2: human IQGAP2 GRD2 (aa 875-1246) (domain or fragment, UniProt Q13576 875-1246)
chain: SKERRKTLETYQQLFYLLQTNPLYLAKLIFQMPQNKSTKFMDTVIFTLYNYASNQREEYLLLKLFKTALEEEIKSKVDQVQDIVTGNPTVIKMVVSFNRGARGQNTLRQLLAPVVKEIIDDKSLIINTNPVEVYKAWVNQLETQTGEASKLPYDVTTEQALTYPEVKNKLEASIENLRRVTDKVLNSIISSLDLLPYGLRYIAKVLKNSIHEKFPDATEDELLKIVGNLLYYRYMNPAIVAPDGFDIIDMTAGGQINSDQRRNLGSVAKVLQHAASNKLFEGENEHLSSMNNYLSETYQEFRKYFKEACNVPEPEEKFNMDKYTDLVTVSKPVIYISIEEIISTHSLLLEHQDAIAPEKNDLLSELLGSLGE
